# Assay results: PubChem BioAssay (NCATS)
# The shares of active, inactive and inconclusive entries below differ from those in the screen. Potencies of inconclusive entries are left out as doubtful fits. Activity calls are given as the source filed them. The call rests on the fitted dose curve; in most records, active means well fitted inhibition curve with a large enough effect; inconclusive means small, poorly fitted or top-dose-only effect; inactive means flat fitted curve, though single readings scatter.
# Target: Dual specificity protein kinase CLK4 (Homo sapiens) (UniProt Q9HAZ1)
# Chain of UniProt Q9HAZ1 (Q9HAZ1 whole entry, looked up): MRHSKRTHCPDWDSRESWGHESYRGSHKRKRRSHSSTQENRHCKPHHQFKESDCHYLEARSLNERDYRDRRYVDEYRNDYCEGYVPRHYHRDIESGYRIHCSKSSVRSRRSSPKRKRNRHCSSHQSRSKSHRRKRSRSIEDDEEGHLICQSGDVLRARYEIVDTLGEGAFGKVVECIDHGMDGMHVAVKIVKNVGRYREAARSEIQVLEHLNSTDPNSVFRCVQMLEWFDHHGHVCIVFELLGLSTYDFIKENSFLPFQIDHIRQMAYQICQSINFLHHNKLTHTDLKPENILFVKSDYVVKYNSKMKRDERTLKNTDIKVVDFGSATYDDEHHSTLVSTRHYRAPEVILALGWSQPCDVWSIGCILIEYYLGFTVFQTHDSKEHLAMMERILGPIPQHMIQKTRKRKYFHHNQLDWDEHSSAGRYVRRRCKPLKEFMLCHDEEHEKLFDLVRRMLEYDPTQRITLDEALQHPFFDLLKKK
# Experiment: qHTS Assay for Inhibitors of CDC-like Kinase 4 (ADP-Glo Assay) (AID 1771); further: nearly all actives have a fitted effect of over 70% in size
# Details: recombinant CLK4, ADP-Glo luminescence; series mostly up to 80 µM; activity change, negative = inhibition: at the top concentration
# Summary of the method: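 Kinase reaction: Clk4 at 25 nM, RS repeat peptide substrate at 100 uM, ATP at 1 uM, 1 hr, room temperature. Product ADP detected as luciferase signal via ADP-Glo.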
# On the % scale 0 is the no-effect control and ±100 the full control effect; potency means the concentration at half of the fitted maximal effect; tags describe the fitted curve by direction and shape.
Compound,"activity change, negative = inhibition",Potency
CN1CCN(c2ncc3nc(-c4cc(F)cc(F)c4)c(=O)n(Cc4cccs4)c3n2)CC1,inactive: 0.619%,
c1cncc(-c2cncnc2NCc2cccs2)c1,inactive: -21.3%,
COc1ccc(Nc2ncc3nc(-c4cccs4)c(=O)n(Cc4cccc(OC)c4)c3n2)cc1,inactive: -9.96%,
COc1cccc(Cn2c(=O)c(-c3ccc(Cl)cc3)nc3cncnc32)c1,inactive: 5.1%,
Cc1cnc(CNc2nc(-c3cccc(NS(C)(=O)=O)c3)nc3ccccc23)cn1,,"inconclusive [falling, single point]"
CN(C)c1ncc2nc(-c3cc(F)cc(F)c3)c(=O)n(C3CC3)c2n1,inactive: -1.89%,
CCNc1ncc2ncc(=O)n(CCOC)c2n1,,active: 11.2 µM
CN(C)c1ncc2nc(-c3ccc(Cl)cc3)c(=O)n(Cc3ccc(F)cc3)c2n1,inactive: 2.41%,
N#Cc1cccc(-c2nc3cnc(N4CCOCC4)nc3n(C3CC3)c2=O)c1,,"inconclusive [falling, partial curve]"
COCCNc1ncnc2ccc(-c3cccc(NS(C)(=O)=O)c3)cc12,,active: 8.91 µM
Cc1cnc(CNc2nc(-c3ccoc3)nc3ccccc23)cn1,,"inconclusive [falling, single point]"
COCCNc1cc(-c2ccccc2C)ncn1,,"inconclusive [falling, full curve]"
FC(F)(F)c1ccccc1-c1cc(NCc2cccnc2)ncn1,,"inconclusive [falling, single point]"
COc1cccc(-c2cncnc2N(C)Cc2ccco2)c1,,"inconclusive [falling, single point]"
